Results reported in PubChem BioAssay AID504332 (National Center for Advancing Translational Sciences (NCATS), 2011).
About 31,000 (8.9%) of roughly 350,000 compounds were called active. The inconclusive results got no clear call from the source; some entries with a clear call stand among them for comparison. The call rests on the fitted dose curve; in most records, active means well fitted inhibition curve with a large enough effect; inconclusive means small, poorly fitted or top-dose-only effect; inactive means no such curve, though single readings can be large or run the other way. Where the call is inconclusive, the potency comes from a doubtful curve fit.

What follows are molecules tested against Histone-lysine N-methyltransferase EHMT2 (Homo sapiens) (UniProt Q96KQ7) (assay: qHTS Assay for Inhibitors of Histone Lysine Methyltransferase G9a). Conditions: G9a H3K9 monomethylation, AlphaScreen, 2 h; activity, negative = inhibition: at 59 µM (top of the series) unless noted.
How it was run: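 AlphaScreen detection with an anti-monomethyl H3K9 antibody quantified product after a 2 h room-temperature reaction containing 500 nM biotinylated H3K9 peptide, 20 µM SAM and 20 nM enzyme, which had been preincubated 15 min with compound.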
Further: nearly all actives have a fitted effect of over 75% in size.
On the % scale 0 is the no-effect control and ±100 the full control effect; potency means the concentration at half of the fitted maximal effect; tags describe the fitted curve by direction and shape.

Chain of UniProt Q96KQ7 (Q96KQ7 whole entry, looked up): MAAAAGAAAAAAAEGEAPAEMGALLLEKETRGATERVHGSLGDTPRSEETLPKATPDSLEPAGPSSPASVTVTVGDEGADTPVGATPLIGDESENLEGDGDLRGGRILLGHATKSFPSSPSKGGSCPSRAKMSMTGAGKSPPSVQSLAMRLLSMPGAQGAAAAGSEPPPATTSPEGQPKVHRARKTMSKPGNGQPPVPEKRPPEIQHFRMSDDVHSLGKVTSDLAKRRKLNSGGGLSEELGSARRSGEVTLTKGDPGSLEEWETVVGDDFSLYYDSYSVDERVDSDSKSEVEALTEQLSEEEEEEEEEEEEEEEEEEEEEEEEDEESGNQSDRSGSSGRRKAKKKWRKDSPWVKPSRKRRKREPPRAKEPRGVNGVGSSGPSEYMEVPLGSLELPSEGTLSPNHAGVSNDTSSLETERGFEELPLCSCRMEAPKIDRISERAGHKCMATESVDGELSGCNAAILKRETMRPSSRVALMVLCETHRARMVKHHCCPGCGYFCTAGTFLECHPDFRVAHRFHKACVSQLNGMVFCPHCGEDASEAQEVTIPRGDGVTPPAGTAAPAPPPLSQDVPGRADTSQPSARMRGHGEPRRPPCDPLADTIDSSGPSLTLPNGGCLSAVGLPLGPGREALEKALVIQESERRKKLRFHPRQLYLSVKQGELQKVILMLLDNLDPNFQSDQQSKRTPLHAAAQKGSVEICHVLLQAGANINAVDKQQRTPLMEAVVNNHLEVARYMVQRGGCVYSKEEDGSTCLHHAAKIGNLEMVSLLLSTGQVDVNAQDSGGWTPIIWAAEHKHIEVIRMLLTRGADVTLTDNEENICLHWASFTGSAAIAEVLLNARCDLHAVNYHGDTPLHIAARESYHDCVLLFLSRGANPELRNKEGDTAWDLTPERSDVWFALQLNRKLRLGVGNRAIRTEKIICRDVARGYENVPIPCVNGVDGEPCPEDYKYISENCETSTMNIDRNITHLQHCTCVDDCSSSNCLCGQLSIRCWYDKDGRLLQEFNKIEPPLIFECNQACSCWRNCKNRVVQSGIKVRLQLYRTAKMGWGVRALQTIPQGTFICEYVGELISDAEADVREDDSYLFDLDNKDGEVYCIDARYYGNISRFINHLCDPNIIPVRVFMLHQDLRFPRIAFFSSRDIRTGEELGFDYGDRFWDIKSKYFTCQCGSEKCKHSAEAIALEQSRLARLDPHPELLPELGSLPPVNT

Row | Structure (SMILES) | Potency | activity, negative = inhibition
1 | CC(=O)NC1=NC(=O)/C(=C/c2cc(C)n(-c3ccc(NC(C)=O)cc3)c2C)S1 | inconclusive: 25.1 µM [inhibitor, single point] | –
2 | COc1ccc(CCNC2=NCCS2)cc1 | inconclusive: 39.8 µM [inhibitor, single point] | –
3 | COc1cccc(C(c2sc3nc(-c4ccco4)nn3c2O)N2CCC3(CC2)OCCO3)c1 (stereo not given) | inconclusive: 25.1 µM [inhibitor, single point] | –
4 | COc1ccc(NS(=O)(=O)c2ccc(NC(=O)c3ccc(CN4CCOCC4)cc3)cc2)cc1 | inconclusive: 31.6 µM [inhibitor, partial curve] | –
5 | CCOC(=O)c1ccc(Nc2cc(C)nc3nc(C)nn23)cc1 | active: 79.4 µM | –
6 | O=C(Cn1ncc2c1-c1ccccc1OC2)Nc1ccc(S(=O)(=O)N2CCCCC2)cc1 | inconclusive: 56.2 µM [inhibitor, partial curve, poor fit] | –
7 | CCS(=O)(=O)N1CCc2cc(C(=O)Nc3cccc(NC(C)=O)c3)ccc21 | inconclusive: 31.6 µM [inhibitor, single point] | –
8 | COc1ccc(CNC(=O)c2c(O)c3ccccc3n(C)c2=O)cc1OC | inconclusive: 79.4 µM [inhibitor, single point] | –
9 | Cc1c(C(=O)Nc2cccc(F)c2)cnn1-c1ccccc1 | inconclusive: 3.16 µM [inhibitor, single point] | –
10 | O=C(NC(=S)NCc1nc2ccccc2[nH]1)c1ccccc1F | inconclusive: 56.2 µM [inhibitor, partial curve, poor fit] | –
11 | CCOC(=O)c1nnc(-c2ccc(C)cc2)nc1Oc1ccc(Cl)cc1Cl | inconclusive: 79.4 µM [inhibitor, single point] | –
12 | Cc1cc(=O)[nH]c(N=N/C(=N/Nc2ccccc2C)c2ccccc2)n1 | active: 28.2 µM | –
13 | CCOC(=O)C1(CCOC)CCN(C(=O)c2ccc(CSC)o2)CC1 | inconclusive: 50.1 µM [inhibitor, partial curve] | –
14 | N#Cc1cc2c(nc1SCC(=O)Nc1sc3c(c1C#N)CCC3)CCCCCC2 | inconclusive: 89.1 µM [inhibitor, partial curve, poor fit] | –
15 | COC(=O)c1ccccc1NC(=O)c1sc(=S)n(C)c1N | active: 7.94 µM | –
16 | CSc1nc2sc3c(c2c2nncn12)CCC3 | inconclusive: 31.6 µM [inhibitor, single point] | –
17 | CCCCN(C(=O)c1ccco1)C1CCS(=O)(=O)C1 (stereo not given) | inactive | –
18 | N#Cc1cc2c(nc1SCc1nc3ccccc3[nH]1)CCC2 | inconclusive: 5.62 µM [inhibitor, partial curve] | –
19 | Clc1ccccc1CSc1nncn1NC/C=C/c1ccccc1 | inconclusive: 89.1 µM [inhibitor, single point] | –
20 | CN1CC[n+]2cnc3ccccc3c21 | active: 2.51 µM | –
21 | CC(=O)c1cc(C#N)c(SCC(=O)C(C)(C)C)nc1C | inconclusive: 22.4 µM [inhibitor, full curve] | –
22 | CCOC(=O)C1CCN(C(=O)c2cccc(NS(=O)(=O)c3ccc(Br)cc3)c2)CC1 | – | inactive: 23.3% [at 12.7 µM]
23 | CCSc1nc(-c2cccnc2)ccc1C#N | inactive | –
24 | CC(C)C(NS(=O)(=O)c1ccc2c(c1)Cc1cc(S(=O)(=O)NC(C(=O)O)C(C)C)ccc1-2)C(=O)O (stereo not given) | inconclusive: 89.1 µM [inhibitor, single point] | –

Row | Structure (SMILES) | Potency | activity, negative = inhibition
25 | Cc1ccc(C2c3[nH]c4ccccc4c3CCN2C(=O)CSc2ccccc2)cc1 (stereo not given) | inconclusive: 31.6 µM [inhibitor, partial curve, poor fit] | –
26 | COc1ccc(/C=C/C(=O)OCC(=O)Nc2ccc(Cl)cn2)cc1 | inactive | –
27 | O=C(Cn1nnc(-c2cccs2)n1)NNC(=O)c1ccccc1Cl | inactive | –
28 | Cc1cc(C(=O)NCc2ccc(C(=O)O)o2)c(C)o1 | inconclusive: 31.6 µM [inhibitor, single point] | –
29 | Cc1cc(C=O)c(C)n1-c1ccc(N2CCCCC2)c([N+](=O)[O-])c1 | active: 12.6 µM | –
30 | Nc1ccc(Oc2ccc([N+](=O)[O-])cc2[N+](=O)[O-])cc1 | inconclusive: 89.1 µM [inhibitor, single point] | –
31 | CCN(C(=O)COc1ccccc1)c1nnc(-c2cccnc2)s1 | inconclusive: 89.1 µM [inhibitor, single point] | –
32 | CCc1cccc(C)c1NC(=O)c1cc(=O)[nH]c2ccc(S(=O)(=O)N3CCOCC3)cc12 | inconclusive: 5.62 µM [inhibitor, single point] | –
33 | CSc1cccc(NC(=O)C2CCCN(S(=O)(=O)c3ccc4c(c3)CCCN4C(C)=O)C2)c1 (stereo not given) | inactive | –
34 | CCn1c(C(C)NC(=O)c2ccc(C)cc2)n[nH]c1=S (stereo not given) | active: 39.8 µM | –
35 | CC(N)=NCCCC(N)C(=O)O (stereo not given) | – | inactive: 23.2% [at 12.7 µM]
36 | COc1cc(CNC(=O)C2CC2)ccc1OCc1ccccc1 | inactive | –
37 | O=C(NCCCN1CCN(c2ccccc2)CC1)c1ccc2nc(CCc3ccccc3)oc2c1 | inconclusive: 31.6 µM [inhibitor, single point] | –
38 | Cc1cnn(CCC(=O)NNC(=S)Nc2cccc(Cl)c2)c1 | active: 50.1 µM | –
39 | CCOc1ccccc1N(CC(=O)NCc1ccccc1)C(=O)CCC(=O)Nc1cc(C)ccn1 | inactive | –
40 | CCOc1ccc(OCC)c(NC(=O)C2CCCN2S(=O)(=O)c2cccc3cccnc23)c1 (stereo not given) | inconclusive: 79.4 µM [inhibitor, single point] | –
41 | CCCCNC(=O)c1ccccc1NC(=O)CCC | inconclusive: 79.4 µM [inhibitor, partial curve, poor fit] | –
42 | Cc1ccc2cc3cc(C(=O)NCCCN4CCc5ccccc5C4)oc3nc2c1 | – | inconclusive: -82.6% [inhibitor]
43 | Cc1ccccc1Nc1ccc(S(=O)(=O)N2CCOCC2)cc1[N+](=O)[O-] | inconclusive: 11.2 µM [inhibitor, partial curve, poor fit] | –
44 | COc1ccc(CCNC(=O)c2ccc3c(c2)S(=O)(=O)N=C2CCCCCN23)cc1 | inactive | –
45 | Cc1cc(C)nc(SCC(=O)N/N=C/C=C/c2ccccc2)n1 | inconclusive: 8.91 µM [inhibitor, partial curve, poor fit] | –
46 | Cc1nc(C)c(C(=O)Nc2ncc([N+](=O)[O-])s2)o1 | active: 10 µM | –
47 | CCN(C(=O)CSc1nc(N)cc(N)n1)C1CCS(=O)(=O)C1 (stereo not given) | inactive | –
48 | CCCNC(=O)C1Cc2cc(S(=O)(=O)N3CCCC3)ccc2N1C(C)=O (stereo not given) | inconclusive: 79.4 µM [inhibitor, single point] | –

Row | Structure (SMILES) | Potency | activity, negative = inhibition
49 | c1cc(CNc2ccc(N3CCOCC3)cc2)ccn1 | active: 39.8 µM | –
50 | Cc1nc(N2CCN(S(=O)(=O)c3ccccc3C#N)CC2)c2c(-c3ccccc3)csc2n1 | – | inactive: 4.38% [at 12.7 µM]
51 | Cc1ccc(-n2c(-c3cccc(C)c3)nc3c(cnn3-c3ccccc3)c2=O)cc1 | inconclusive: 0.891 µM [inhibitor, full curve, poor fit] | –
52 | Cc1cccc(OCC(=O)NC(C)C(=O)N/N=C/c2c(OCc3ccccc3)ccc3ccccc23)c1 (stereo not given) | inconclusive: 6.31 µM [inhibitor, partial curve, poor fit] | –
53 | CC(=O)C1=C(O)C(=O)N(Cc2ccco2)C1c1cccc(F)c1 (stereo not given) | inactive | –
54 | COCCNC(=O)C(c1ccc(F)cc1)N(C(=O)CCC(=O)Nc1ccccn1)C1CCCCC1 (stereo not given) | inconclusive: 8.91 µM [inhibitor, partial curve, poor fit] | –
55 | Cc1sc(NC(=S)NC(=O)c2ccc(C(C)(C)C)cc2)c(C#N)c1C | – | inconclusive: -80.2% [inhibitor]
56 | CCc1ccc2oc(-c3ccc(OC)cc3)cc(=Nc3c(C)n(C)n(-c4ccccc4)c3=O)c2c1 | active: 25.1 µM | –
57 | COc1cc2c(cc1OC)CN(C(=O)CN1C(=O)NC3(CCC(C)CC3)C1=O)CC2 (stereo not given) | inconclusive: 35.5 µM [inhibitor, single point] | –
58 | Cc1nc(-c2ccc(NC(=O)C3CC3)cc2)cs1 | inconclusive: 89.1 µM [inhibitor, single point] | –
59 | O=C(Nc1ccc(Cc2ccncc2)cc1)c1ccc(N2CCOCC2)c([N+](=O)[O-])c1 | inconclusive: 50.1 µM [inhibitor, partial curve] | –
60 | CCc1nnc(/N=C/c2c(O)n(-c3ccc(Cl)cn3)c(=O)c3ccccc23)s1 | inconclusive: 39.8 µM [inhibitor, single point] | –
61 | O=C(c1ccc([N+](=O)[O-])cc1[N+](=O)[O-])n1cnc2ccccc21 | inconclusive: 89.1 µM [inhibitor, partial curve, poor fit] | –
62 | Cc1cc(C)c2c(-n3cccc3)c(C(=O)NCCc3ccc(Cl)cc3)sc2n1 | inactive | –
63 | CCOc1ccccc1C1CC(c2ccccc2)Nc2nc(N)nn21 (stereo not given) | inconclusive: 89.1 µM [inhibitor, single point] | –
64 | COc1cc(C2C3=C(Nc4ncnn42)c2ccccc2CC3)cc(OC)c1OC (stereo not given) | active: 31.6 µM | –
65 | Cc1cc(C)c(S(=O)(=O)Nc2ncn[nH]2)cc1C | inconclusive: 89.1 µM [inhibitor, single point] | –
66 | O=S(=O)(c1ccc(Br)s1)N1CCC2(CC1)OCCO2 | inactive | –
67 | O=C(COc1ccc(Br)cc1)Nc1ccccc1N1CCCC1 | active: 44.7 µM | –
68 | COC(=O)C(C)Sc1nnc2cc(C)c3cc(C)cc(C)c3n12 (stereo not given) | active: 8.91 µM | –
69 | COc1cc(/C=C(/C#N)C(=O)Nc2ccccc2)c(Br)cc1OCc1ccc(C(=O)O)cc1 | inconclusive: 56.2 µM [inhibitor, partial curve, poor fit] | –
70 | COc1cc(-c2cc(OC)c3c(C)oc(C)c3c(=O)c2)ccc1OC(=O)c1ccccc1C | inconclusive: 8.91 µM [inhibitor, partial curve] | –
